From PMC4336329 (PLoS ONE, 2015) come the findings set out here.

The whole screen tested about 310,000 compounds, of which about 14,000 (4.5%) showed an effect of 50% or more. The effect is printed as a negative number. The list shows a part of the results.
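Note: peak tail current of the secondary pulse compared with the same well before compound.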

Sequence of human ether-à-go-go-related gene (hERG) potassium channel (Q12809 whole entry, looked up): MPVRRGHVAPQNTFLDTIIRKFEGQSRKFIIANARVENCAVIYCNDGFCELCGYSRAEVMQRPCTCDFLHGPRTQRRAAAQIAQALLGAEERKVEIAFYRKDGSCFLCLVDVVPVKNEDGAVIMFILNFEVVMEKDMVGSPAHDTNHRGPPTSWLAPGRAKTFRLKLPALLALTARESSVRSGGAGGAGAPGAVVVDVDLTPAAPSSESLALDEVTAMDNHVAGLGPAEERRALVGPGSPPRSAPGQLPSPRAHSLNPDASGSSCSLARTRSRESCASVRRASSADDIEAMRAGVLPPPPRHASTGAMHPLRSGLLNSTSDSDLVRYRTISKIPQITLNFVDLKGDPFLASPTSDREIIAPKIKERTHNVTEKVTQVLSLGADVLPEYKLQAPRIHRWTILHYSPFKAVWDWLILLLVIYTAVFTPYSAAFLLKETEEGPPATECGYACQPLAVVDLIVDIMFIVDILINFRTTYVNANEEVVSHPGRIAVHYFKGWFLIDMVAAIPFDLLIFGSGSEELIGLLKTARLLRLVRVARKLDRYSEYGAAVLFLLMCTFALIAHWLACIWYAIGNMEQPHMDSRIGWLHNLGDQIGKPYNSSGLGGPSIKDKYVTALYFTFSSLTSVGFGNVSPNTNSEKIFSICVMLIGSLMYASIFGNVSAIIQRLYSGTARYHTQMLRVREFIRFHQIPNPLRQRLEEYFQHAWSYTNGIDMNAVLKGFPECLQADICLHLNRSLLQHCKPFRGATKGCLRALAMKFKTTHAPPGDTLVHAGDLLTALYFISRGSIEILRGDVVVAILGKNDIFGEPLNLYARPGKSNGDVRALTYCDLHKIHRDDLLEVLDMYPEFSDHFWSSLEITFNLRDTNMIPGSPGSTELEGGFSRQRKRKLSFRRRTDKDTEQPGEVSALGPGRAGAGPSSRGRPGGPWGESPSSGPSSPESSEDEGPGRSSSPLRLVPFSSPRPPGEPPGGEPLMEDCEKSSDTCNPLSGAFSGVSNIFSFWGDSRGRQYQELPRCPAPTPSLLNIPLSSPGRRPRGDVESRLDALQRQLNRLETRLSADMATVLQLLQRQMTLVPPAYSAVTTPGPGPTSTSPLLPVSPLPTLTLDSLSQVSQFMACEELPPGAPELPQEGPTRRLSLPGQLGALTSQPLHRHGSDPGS

This assay concerns the target human ether-à-go-go-related gene (hERG) potassium channel (human, UniProt Q12809). Description: primary screen, population patch clamp on CHO cells stably expressing hERG.
Turning to `CCOC(=O)c1nnn(-c2ccc([N+](=O)[O-])cc2[N+](=O)[O-])c1C`, the “hERG current change (%, negative = inhibition) at 10uM” value is 8.05%.
Turning to `O=C(NCCCN1CCOCC1)c1ccc(Cl)cc1Cl`, the “hERG current change (%, negative = inhibition) at 10uM” value was -1.8%.
For the molecule `COc1cccc([C@@H]2Oc3ccc(OC)cc3C(=O)[C@H]2OC(=O)Nc2cc(OC)c(OC)c(OC)c2)c1`, the “hERG current change (%, negative = inhibition) at 10uM” value is listed as 15.4%.
Turning to `CC12CCC(=O)N1C(C(=O)Nc1cc(Cl)ccc1N1CCCC1)CS2` (stereo not drawn), the “hERG current change (%, negative = inhibition) at 10uM” value is recorded as -26.4%.
The figure for `CCCCCC(=O)Nc1ccc(Cl)cn1` is 2.75%.
The figure for `CC(C)(C)NC(=O)Cn1nnnc1-c1nonc1N` is -4.36%.
With `Cc1ccc(O)c(C(=O)c2cnc3c(c2)COc2ccccc2-3)c1`, the “hERG current change (%, negative = inhibition) at 10uM” value is -1.61%.
The figure for `CC(C)C(=O)N1CCN(c2ccccc2NC(=O)c2ccc(C#N)cc2F)CC1` is -72.2%.
Then `CC(C)Cn1c(N)c(C(=O)COC(=O)c2c(O)c(Cl)cc(Cl)c2Cl)c(=O)n(C)c1=O`, with -79.8%; and `C[C@@H](C(=O)N1CCNCC1)n1cc(CCC(=O)O)nn1.Cl`, with 19.2%; and `Cc1c(/C=C2\SC(=Nc3cccc(C(=O)O)c3)NC2=O)c2ccccc2n1C`, with 3.21%.
For the molecule `O=C(NC1CCN(C(=O)NC2CCCCC2)CC1)c1cccc(F)c1`, the “hERG current change (%, negative = inhibition) at 10uM” value is given as -9.83%.
On to `CN(C(=O)c1ccc2c(c1)S(=O)(=O)N=C1CCCCCN12)c1ccccc1`, for which the “hERG current change (%, negative = inhibition) at 10uM” value came out at 9.44%.
The figure for `Clc1nc(Cl)nc(N(c2ccccc2)c2ccccc2)n1` is 2.52%; for `CC1CC(C)(C)CC2(C1)NC(=O)N(CC(=O)Nc1nccs1)C2=O` (stereo not drawn) it is -8.19%.
With `C=CCNC(=O)COc1ccc(S(=O)(=O)Nc2ccc(OCC)cc2)cc1`, the “hERG current change (%, negative = inhibition) at 10uM” value is given as -2.47%.
Then `CC(C)n1nc(C(=O)Nc2cccc(S(=O)(=O)N3CCOCC3)c2)c2ccccc2c1=O`, with -16.8%; and `CC1=C/C(=N\NC(=S)NCc2ccccc2)CC1`, with -0.473%.
Then `O=C(NS(=O)(=O)c1ccc(NC(=O)C2CCCO2)cc1)c1ccccc1` (stereo not drawn), with -15.3%.
In the case of `Cc1ccccc1NC(=S)N1CCN(c2ccccc2C)CC1`, the “hERG current change (%, negative = inhibition) at 10uM” value was determined as 20.4%.
The figure for `CC(CCc1ccccc1)NCC#N.Cl` (stereo not drawn) is 18.9%.
On to `COC(=O)/C=C1\NC(=O)C(C)S1` (stereo not drawn), for which the “hERG current change (%, negative = inhibition) at 10uM” value was found to be 17.7%.
Consider `CCC(C(=O)NC1CCCC1)N(C(=O)c1snc(C(N)=O)c1N)c1ccc(OC)c(OC)c1` (stereo not drawn), for which the “hERG current change (%, negative = inhibition) at 10uM” value was 15.5%.
With `Cc1ccc(-n2c(O)c(/C=N/n3cnnc3)c3ccccc3c2=O)cc1` [7972794], the “hERG current change (%, negative = inhibition) at 10uM” value came to 0.826%.
The figure for `Cc1ccc(-c2n[nH]c(=S)nc2-c2ccc(C)cc2)cc1` is 18.7%; for `Cc1cc(C(=O)NC2CC(C)(C)Cc3c2cnn3-c2ccc(F)cc2)no1` (stereo not drawn) it is -32.8%; for `O=S(=O)(NCCO)c1ccc2c(c1)Cc1cc(S(=O)(=O)NCCO)ccc1-2` it is 16.4%.
On to `O=C(c1ccc(NC2=NC3CS(=O)(=O)CC3S2)cc1)N1CCc2ccccc2C1` (stereo not drawn), for which the “hERG current change (%, negative = inhibition) at 10uM” value came to 3.08%.
`Cc1cccc(C)c1NC(=O)COc1cccc(/C=N/NC(=O)C(=O)NCc2ccccc2)c1`: the “hERG current change (%, negative = inhibition) at 10uM” value is -13.1%.
Then `COC(=O)c1cc2c(-c3ccccc3)cc3ccccn3c-2c1C(=O)OC`, with 14.7%; and `Cc1ccc(S(=O)(=O)N2CCCC(C(=O)Nc3ccc(C(=O)O)cc3)C2)cc1Cl` (stereo not drawn), with -12.1%.
Turning to `COc1ccc(C)cc1NC(=O)CCc1c(C)nn(-c2ccc(N3CCCCC3)nn2)c1C`, the “hERG current change (%, negative = inhibition) at 10uM” value is on record as -20.2%.
The figure for `Cc1ccc2c(ccc(=S)n2C)c1` is 22.1%; for `N=c1c2c(ncn1Cc1ccco1)Oc1c(ccc3ccccc13)C2c1ccccc1` (stereo not drawn) it is -26.5%.
The figure for `O=C(CC1OC(=O)c2ccccc21)NC1CCCCC1` (stereo not drawn) is 5.5%.
The figure for `O=C(CSc1ccccc1C(=O)O)NCc1ccccc1` is 2.08%; for `CCCN1C(=O)C(O)(CC(=O)c2cccc(OC)c2)c2ccccc21` (stereo not drawn) it is 1.94%.
As for `Cc1noc(C)c1CSc1ncnc2sc3c(c12)CCC(C)C3` (stereo not drawn), the “hERG current change (%, negative = inhibition) at 10uM” value is listed as 14.7%.
For `COc1ccc(OC)c(/C=C/c2nc3ccccc3[nH]c2=O)c1`, the “hERG current change (%, negative = inhibition) at 10uM” value turned out to be 14.3%.
The figure for `Cc1c(NC(=O)COc2ccc3ccccc3c2)c(=O)n(-c2ccccc2)n1C` is -39.3%; for `Cc1ccc(SC[C@H](C)CN2CC[C@H](NC(=O)OCc3ccccc3)CCC2=O)cc1` it is -41.6%; for `CC(C)(C)C(=O)Nc1nc(-c2ccc3c(c2)OCO3)cs1` it is -36.4%.
Turning to `CC(=O)c1cccc(S(=O)(=O)NC2CCSc3ccccc32)c1` (stereo not drawn), the “hERG current change (%, negative = inhibition) at 10uM” value is given as -2.51%.
Then `C=CCn1c(SCC(=O)O)nnc1-c1cccs1`, with 0.617%; and `O=C1C=C(Nc2ccc(Cl)cc2)CC(c2ccco2)C1` (stereo not drawn), with -1.85%.
Then `O=C(CCCOc1ccc(Cl)cc1)NC1CCCCC1`, with 5.28%.
Then `COc1ccc(C(CNC(=O)c2cc(F)c(F)c(F)c2F)N2CCOCC2)cc1` (stereo not drawn), with 7.98%.
For `CCN(CC)CC(=O)Nc1ccc2c(c1)N(C(=O)CN(CC)CC)c1ccccc1CC2.Cl.O`, the “hERG current change (%, negative = inhibition) at 10uM” value is recorded as 8.05%.
Then `Cc1ccsc1/C=N/NC(=S)NCCc1ccccc1`, with -2.74%; and `CN(Cc1ccc(F)cc1)C(=O)c1ccc(NS(=O)(=O)c2ccc3[nH]c(=O)[nH]c3c2)cc1`, with 12.1%; and `C(=N\Nc1nc(-c2ccccc2)cs1)/c1ccncc1`, with -50.5%.
Then `CSc1ccc(CCNC(=O)CCc2nnc3ccc(N4CCC5(CC4)OCCO5)nn23)cc1`, with -0.439%; and `CC(C)CN(C(=O)Cn1c(C(F)(F)F)nc2ccccc21)C1CCS(=O)(=O)C1` (stereo not drawn), with -9.53%.
Then `COCCNC(=O)c1onc(CSc2ccc(F)c(F)c2)c1C(=O)O`, with -1.38%; and `CCOc1cc2[nH]c(=S)n(CCN3CCCCC3CC)c(=O)c2cc1OCC` (stereo not drawn), with -44.5%; and `CC(=O)c1c(C)[nH]c(C(=O)CSc2nnc(C)s2)c1C`, with 13.9%.
Take `Cn1c(=O)c2cc3ccc(Cl)cc3nc2n(C)c1=O`: the “hERG current change (%, negative = inhibition) at 10uM” value worked out at 6.69%.
Then `S=c1[nH]nc(-c2cccc(Cl)c2)n1/N=C/c1ccco1`, with 4.37%; and `COC(=O)c1ccccc1NC(=O)/C=C/C(=O)O`, with -8.47%.
As for `Br.CCOc1ccc(N=c2scc(-c3ccc(OC)cc3)n2CCO)cc1`, the “hERG current change (%, negative = inhibition) at 10uM” value is reported as 15.8%.
As to `CC(=O)NNC(=O)c1cc2sccc2s1`, the “hERG current change (%, negative = inhibition) at 10uM” value turned out to be 2.9%.
Then `Cc1cc(NS(=O)(=O)c2ccc(NC(=O)CCCOc3ccc(Cl)cc3)cc2)no1`, with 15.1%; and `Cc1[nH]nc2c1C(c1ccc(OC(=O)c3ccco3)cc1)C(C#N)=C(N)O2` (stereo not drawn), with 9.84%; and `Cc1cc(C)c(S(=O)(=O)Nc2ccc(O)c(Sc3ncn[nH]3)c2)c(C)c1`, with 4.49%.
As for `Cc1cccn2c(=O)c(/C=C(\C#N)C(N)=O)c(N3CCCCCC3)nc12`, the “hERG current change (%, negative = inhibition) at 10uM” value is on record as -13.2%.
The figure for `COc1ccc(C(=O)O/N=C(/C)c2cccs2)cc1` is 7.41%; for `Cc1cc2c(OCC(O)CN3CCCCC3)cccc2[nH]1` (stereo not drawn) it is -3.76%.
Then `COc1ccc(C2NC(c3ccc(OC)cc3)C(C)C(=O)C2C)cc1` (stereo not drawn), with -4.47%; and `CC1Cc2ccccc2C(=O)N1` (stereo not drawn), with 9.73%; and `N#Cc1ccccc1CN1C(=O)S/C(=C/c2cccn2-c2ccc(C(=O)O)cc2)C1=O`, with 0.594%.
As for `O=C(COC(=O)c1ccc(O)cc1O)Nc1cccc2ccccc12`, the “hERG current change (%, negative = inhibition) at 10uM” value is listed as -20.8%.
For `Cc1ccc(-c2ccc(/C=N/N3C(=O)C4C5C=CC(CC5)C4C3=O)o2)c([N+](=O)[O-])c1` (stereo not drawn), the “hERG current change (%, negative = inhibition) at 10uM” value is on record as -16.7%.
For the molecule `CC(OC(=O)Cc1coc2cc3c(cc12)CCC3)C(=O)NC(N)=O` (stereo not drawn), the “hERG current change (%, negative = inhibition) at 10uM” value worked out at 11.1%.
The figure for `COc1ccc(C2C(C#N)=C(N)OC3=C2C(=O)CC(C)C3)c(OC)c1OC` (stereo not drawn) is -3.9%; for `Cc1ccc2c(c1)N(CC(=O)Nc1c(C)cccc1C)C(=O)c1cccnc1O2` it is 11.5%; for `COc1ccc(OCC(O)Cn2c(=N)n(CCN3CCCCC3)c3ccccc32)cc1.Cl` (stereo not drawn) it is -68.1%.
`CC(=O)c1cccc(Nc2cc(C)nc3ccccc23)c1.Cl`: the “hERG current change (%, negative = inhibition) at 10uM” value is -64%.
Take `CCSc1ccc2c(c1)N(CCCN1CCN(C)CC1)c1ccccc1S2.O=C(O)CC(O)C(=O)O`: the “hERG current change (%, negative = inhibition) at 10uM” value is recorded as -54.2%.
Then `CCOC(=O)[C@@H]1[C@H]2COc3ccc(Br)cc3[C@@H]2N2C(=O)N(c3ccc(Cl)cc3)C(=O)[C@]12C`, with 0.415%.
The figure for `Cc1ccc(NC(=O)C2CCCO2)cc1[N+](=O)[O-]` (stereo not drawn) is -6.23%; for `NC(=O)CSc1nnc(Cn2c(=O)sc3ccccc32)n1-c1ccccc1` it is -2.13%; for `COc1ccc(Cc2nnc(SCc3nc4ccccc4c(=O)[nH]3)o2)cc1` it is 9.59%.
Then `Cc1cc(/C=N/NC(=O)C(=O)NCc2ccccn2)c(C)n1-c1ccccc1`, with -14.4%; and `CCOC(=O)C(C(=O)OCC)C(C(=O)OCC)N1CCOCC1` (stereo not drawn), with 6.49%.
Turning to `COc1cccc(OCc2nc3c4cnn(-c5ccccc5)c4ncn3n2)c1`, the “hERG current change (%, negative = inhibition) at 10uM” value was 10.6%.
Then `COc1cc(C(=O)Nc2ccc([N+](=O)[O-])cn2)cc(OC)c1OC`, with -3.7%; and `O=C(O)c1ccc(S(=O)(=O)Nc2ccc(O)c(Sc3nc4ccccc4s3)c2)cc1`, with 23.4%.
